Over roughly 18,000 sequences, “TetR repression strength (sort-seq, GFP reporter)” has its median near 0.23; the highest 2% begin near 0.68. The list shows a part of the results.

This assay has as its target TetR (class B, Tn10) (UniProt P04483). Description: TetR repression strength (sort-seq, GFP reporter) (relative to tetO2 = 1); higher = stronger repression. Particulars: E. coli. Summed up: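 Three independent transformations of E. coli SIG10-MAX were made with a low-copy plasmid library randomizing eight operator positions between a constitutive promoter and sfGFP, with constitutive TetR. Following 5 h at 37 °C in LB plus 50 µg/mL chloramphenicol, 10^6 cells went through FACS into 13 fluorescence bins, and each bin was sequenced by Illumina. Repression strength was defined as the top bin index plus one minus the read-weighted mean bin, divided by the unaltered operator's value. Averages included only members reaching ≥30 reads in all replicates with a CV ≤0.5.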
Sequence of UniProt P04483 (P04483 whole entry): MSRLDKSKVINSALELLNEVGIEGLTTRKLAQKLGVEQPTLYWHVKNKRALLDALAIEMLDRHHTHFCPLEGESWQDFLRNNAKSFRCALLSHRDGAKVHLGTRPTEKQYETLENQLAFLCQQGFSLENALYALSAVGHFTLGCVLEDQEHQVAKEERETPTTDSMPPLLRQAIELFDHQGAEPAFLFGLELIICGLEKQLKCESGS
As to TCCCACGGAGTCCTTGAGA, the TetR repression strength came to 0.0212. The sequence TCCCTATTAGTTCCAGAGA had a TetR repression strength of 0.193. To TCCCGTATAGTCGGCGAGA belongs 0.0358; to TCCCCGGTAGTTGGAGAGA, 0.18.

In the case of TCCCCCTGAGTGCGAGAGA, the TetR repression strength is 0.149. For TCCCGGTAAGTGGCTGAGA, the TetR repression strength worked out at 1.11.

Consider TCCCTGCAAGTGCAGGAGA, for which the TetR repression strength came to 0.336.

In turn, TCCCCAATAGTCTTAGAGA showed a TetR repression strength of 0.407. The sequence TCCCGGGTAGTCCACGAGA came in with a TetR repression strength of 0.335.

With TCCCGGTGAGTGTATGAGA, the TetR repression strength turned out to be 0.302. To TCCCCAAAAGTGTGAGAGA belongs 0.128; to TCCCAGAGAGTGCATGAGA, 0.159.

TCCCGGCGAGTGTCAGAGA registered a TetR repression strength of 0.495. Regarding TCCCGGAGAGTCGGTGAGA, the TetR repression strength was determined as 0.163.

TCCCACGCAGTTGTGGAGA had a TetR repression strength of 0.155.

In the case of TCCCGTGGAGTAGACGAGA, the TetR repression strength is 0.099.

The sequence TCCCCGTCAGTGGTCGAGA returned a TetR repression strength of 0.184. To TCCCGCTTAGTTAGGGAGA belongs 1.02; to TCCCAAGGAGTTAACGAGA, 0.424. TCCCACGGAGTGGGCGAGA returned a TetR repression strength of 0.248. Regarding TCCCGTAGAGTCTAGGAGA, the TetR repression strength turned out to be 0.267.

Sequence TCCCGCCTAGTATTTGAGA registered a TetR repression strength of 0.278. To TCCCGCAGAGTGGGCGAGA belongs 0.274; to TCCCACCAAGTCGGCGAGA, 0.113; to TCCCCCCAAGTATTGGAGA, 0.159.

In turn, TCCCATTTAGTAACTGAGA displayed a TetR repression strength of 0.258.

As to TCCCATTGAGTGGGTGAGA, the TetR repression strength amounted to 0.104. To TCCCATTAAGTCTAAGAGA belongs 0.247; to TCCCGGATAGTATGAGAGA, 0.24; to TCCCTATGAGTGTCAGAGA, 0.238.

Sequence TCCCTCTCAGTAATCGAGA came in with a TetR repression strength of 0.415. To TCCCCCGAAGTGGTTGAGA belongs 0.198. The sequence TCCCGACGAGTGACCGAGA registered a TetR repression strength of 0.514. The sequence TCCCTCGCAGTACGAGAGA displayed a TetR repression strength of 0.265. The figure for TCCCGCTTAGTAACTGAGA is 0.215; for TCCCAAGCAGTCTGGGAGA it is 0.173.

In turn, TCCCCTGGAGTTCGTGAGA registered a TetR repression strength of 0.234. As to TCCCGCTGAGTAAGTGAGA, the TetR repression strength worked out at 0.363. Turning to TCCCTAGGAGTTAGGGAGA, the TetR repression strength came out at 0.979. To TCCCCGCGAGTGGGGGAGA belongs 0.221; to TCCCCGGAAGTGTTTGAGA, 0.13; to TCCCTTGTAGTTGATGAGA, 0.15. The figure for TCCCTTAGAGTACACGAGA is 0.274; for TCCCGAGGAGTGAGTGAGA it is 0.238. The figure for TCCCCGTCAGTGAGCGAGA is 0.0806; for TCCCAAAGAGTGTAGGAGA it is 0.241. Sequence TCCCGATAAGTGGCTGAGA yielded a TetR repression strength of 0.523. For the sequence TCCCCGACAGTACAAGAGA, the TetR repression strength is 0.275. With TCCCCGTTAGTGGTCGAGA, the TetR repression strength was found to be 0.0434. With TCCCTTCGAGTGGTGGAGA, the TetR repression strength was 0.263. The figure for TCCCAGAAAGTGATAGAGA is 0.438; for TCCCGATCAGTAGAAGAGA it is 0.289; for TCCCGTTAAGTGATGGAGA it is 0.305.

In turn, TCCCCGGAAGTGTGGGAGA returned a TetR repression strength of 0.451. To TCCCCAATAGTGTTCGAGA belongs 0.397; to TCCCCTCCAGTTATTGAGA, 0.477; to TCCCAGTCAGTGAGGGAGA, 0.154.

The sequence TCCCACACAGTATGTGAGA registered a TetR repression strength of 0.13. The figure for TCCCAAACAGTGGCGGAGA is 0.277. As to TCCCGCGGAGTCATGGAGA, the TetR repression strength is 0.148.

Take TCCCATGTAGTGTACGAGA: the TetR repression strength stood at 0.162. In turn, TCCCGATCAGTGGAAGAGA yielded a TetR repression strength of 0.508. TCCCCACGAGTATCTGAGA yielded a TetR repression strength of 0.207. The figure for TCCCCAAGAGTGCGAGAGA is 0.419. To TCCCGATCAGTCTGGGAGA belongs 0.215; to TCCCCGTGAGTAGGGGAGA, 0.234; to TCCCCACCAGTCATCGAGA, 0.399. The figure for TCCCGCAAAGTACAAGAGA is 0.317; for TCCCTTGGAGTAAGTGAGA it is 0.0553. Regarding TCCCTGGCAGTAAGGGAGA, the TetR repression strength is 0.216. Sequence TCCCAGATAGTGGAGGAGA returned a TetR repression strength of 0.342. TCCCTAAAAGTGTGTGAGA displayed a TetR repression strength of 0.177. The figure for TCCCCAAGAGTGAGGGAGA is 0.228; for TCCCGTTCAGTTACCGAGA it is 0.446; for TCCCATAGAGTTCTGGAGA it is 0.00727. The figure for TCCCAGAGAGTTTTTGAGA is 0.299; for TCCCGTGAAGTGGCAGAGA it is 0.175; for TCCCTATTAGTGAGAGAGA it is 0.631. Sequence TCCCAATGAGTGCCAGAGA gave a TetR repression strength of 0.668.

In the case of TCCCTGATAGTCTCCGAGA, the TetR repression strength amounted to 0.335. TCCCGCACAGTAGCTGAGA: the TetR repression strength worked out at 0.211. The figure for TCCCCCCGAGTGTTGGAGA is 0.179. TCCCTTCTAGTTGTCGAGA had a TetR repression strength of 0.636.

TCCCTGTAAGTAGAGGAGA showed a TetR repression strength of 0.246.

Consider TCCCCAGGAGTTGGAGAGA, for which the TetR repression strength was 0. The figure for TCCCGGCCAGTGCACGAGA is 0.235; for TCCCGGGCAGTGTTAGAGA it is 0.354; for TCCCGTCAAGTATCTGAGA it is 0.514. For the sequence TCCCCCAGAGTGGGCGAGA, the TetR repression strength was 0.137. As to TCCCACTCAGTTGTAGAGA, the TetR repression strength was 0.614. To TCCCTAGGAGTCGGGGAGA belongs 0.261; to TCCCGGTGAGTGTGTGAGA, 0.182. Turning to TCCCTAACAGTGTAAGAGA, the TetR repression strength came to 0.355. The sequence TCCCCGATAGTAAGGGAGA came in with a TetR repression strength of 0.372. For the sequence TCCCACGGAGTGCGTGAGA, the TetR repression strength amounted to 0.125. Sequence TCCCAGCAAGTACGGGAGA registered a TetR repression strength of 0.361. As for TCCCCCTTAGTAGTGGAGA, the TetR repression strength worked out at 0.385. Regarding TCCCCGGTAGTCTCTGAGA, the TetR repression strength stood at 0.514. The figure for TCCCTTTGAGTAAGGGAGA is 0.152; for TCCCGCTTAGTGGGGGAGA it is 0.525.

Turning to TCCCGGAGAGTCAGGGAGA, the TetR repression strength is 0.288.

In the case of TCCCTACAAGTATTCGAGA, the TetR repression strength was 0.207.

The record behind these values is a collection of fitness landscapes (doi:10.1038/s41467-024-54723-y).
